The labels stand for the following.
B1: PhoQ; a variant is named by its letters at X, in order, P23837 (parent)
chain: MKKLLRLFFPLSLRVRFLLATAAVVLVLSLAYGMVALIGYSVSFDKTTFRLLRGESNLFYTLAKWENNKLHVELPENIDKQSPTMTLIYDENGQLLWAQRDVPWLMKMIQPDWLKSNGFHEIEADVNDTSLLLSGDHSIQQQLQEVREDDDDAEMTHSVAVNVYPATSRMPKLTIVVVDTIPVELKSSYMVWSWFIYVLSANLLLVIPLLWVAAWWSLRPIEALAKEVRELEEHNRELLNPATTRELTSLVRNLNRLLKSERERYDKYRTTLTDLTHSLKTPLXXLQXXLRSLRSEKMSVSDAEPVMLEQISRISQQIGYYLHRASMRGGTLLSRELHPVAPLLDNLTSALNKVYQRKGVNISLDISPEISFVGEQNDFVEVMGNVLDNACKYCLEFVEISARQTDEHLYIVVEDDGPGIPLSKREVIFDRGQRVDTLRPGQGVGLAVAREITEQYEGKIVAGESMLGGARMEVIFGRQHSAPKDE

195 variants from a collection of fitness landscapes (doi:10.1126/science.1257360) can be followed below.

This is one part of the list.

Variants of B1 are the subject of the assay. As to the kind of experiment: enrichment ratio after two sorts for PhoP signalling (ratio (wild type AVST 3.29)); higher = more functional. To be noted: with PhoP (E. coli).
As to RVRP, the enrichment ratio was at most 0.25.

On to INWT, for which the enrichment ratio is at most 0.25. Turning to ADGF, the enrichment ratio was at most 0.25.

As to SPEW, the enrichment ratio is at most 0.25. Take KAGF: the enrichment ratio was at most 0.25. In the case of SKIY, the enrichment ratio came out at 4.42.

As for SHFN, the enrichment ratio was at most 0.25. For YRHY, the enrichment ratio is at most 0.25. Take DIWF: the enrichment ratio was at most 0.25. As to SPHP, the enrichment ratio was at most 0.25. Turning to KWAI, the enrichment ratio is at most 0.25.

NPWM: the enrichment ratio is at most 0.25. For MSYN, the enrichment ratio turned out to be 3.17. For QHCW, the enrichment ratio was at most 0.25.

For LFSN, the enrichment ratio was at most 0.25. HSWE: the enrichment ratio was at most 0.25. Consider KDLR, for which the enrichment ratio was at most 0.25. Take HMCH: the enrichment ratio was at most 0.25. Next, AGAH: 11.2. As for DCMP, the enrichment ratio is at most 0.25. For the variant AVKR, the enrichment ratio was at most 0.25.

For the variant WPFR, the enrichment ratio was at most 0.25. As for KMAY, the figure is at most 0.25. As for QDCY, the enrichment ratio is at most 0.25.

Turning to RRRD, the enrichment ratio was at most 0.25. As for GYCH, the figure is at most 0.25; as for VLIC, at most 0.25. Next, YEPD: at most 0.25; SEGA: 12. With SVNK, the enrichment ratio was at most 0.25. With MACI, the enrichment ratio stood at 8.52. For the variant IDFT, the enrichment ratio is at most 0.25. PWVH: the enrichment ratio was at most 0.25. Next, ECAS: at most 0.25. For the variant VDHG, the enrichment ratio is at most 0.25.

GVTR: the enrichment ratio is at most 0.25. In the case of HNIY, the enrichment ratio was at most 0.25.

On to QTCA, for which the enrichment ratio was at most 0.25.

VRDE: the enrichment ratio is at most 0.25. In the case of RTDR, the enrichment ratio is at most 0.25. Consider RLKL, for which the enrichment ratio is at most 0.25. Next, KTMY: at most 0.25. Regarding DMLC, the enrichment ratio is at most 0.25. With SPEI, the enrichment ratio was at most 0.25. As for MPNW, the figure is at most 0.25; as for EHDR, at most 0.25. Turning to LTVA, the enrichment ratio was at most 0.25. As for ENWQ, the figure is at most 0.25. YGHS: the enrichment ratio is at most 0.25. Turning to DLRP, the enrichment ratio was at most 0.25.

Consider YRFS, for which the enrichment ratio is at most 0.25. TTMA: the enrichment ratio is 13.4. Next, SFYR: at most 0.25. In the case of ASKQ, the enrichment ratio was at most 0.25. As for LIYG, the figure is at most 0.25; as for TGCA, 19.8. As for RDHQ, the enrichment ratio is at most 0.25. As for HHRP, the figure is at most 0.25.

For TFKV, the enrichment ratio is at most 0.25. With PHMD, the enrichment ratio was at most 0.25.

For HDPS, the enrichment ratio is at most 0.25.

Turning to YWMH, the enrichment ratio was at most 0.25. As for PMHN, the figure is at most 0.25; as for FHRY, at most 0.25. As for YNLG, the enrichment ratio came to 5.88. For the variant KHDF, the enrichment ratio is at most 0.25. LEMP: the enrichment ratio was at most 0.25. In the case of HFPK, the enrichment ratio is at most 0.25. Regarding NYVP, the enrichment ratio was at most 0.25.

For VEFA, the enrichment ratio was at most 0.25.

For RFNI, the enrichment ratio is at most 0.25. GMLF: the enrichment ratio stood at 7.41. With VRIY, the enrichment ratio is at most 0.25.

With DYVL, the enrichment ratio was at most 0.25. Regarding FINV, the enrichment ratio was at most 0.25. For the variant EKYH, the enrichment ratio is at most 0.25. Regarding IQFV, the enrichment ratio was at most 0.25. HHVC: the enrichment ratio was at most 0.25.

Take NYVT: the enrichment ratio is at most 0.25. Next, VMMY: at most 0.25; AGKE: at most 0.25. Next, YCRM: at most 0.25; WNAL: at most 0.25; SCRQ: at most 0.25.

As to IEVY, the enrichment ratio was at most 0.25.

GMIQ: the enrichment ratio is at most 0.25.

As for YHYW, the enrichment ratio was at most 0.25. With SYRY, the enrichment ratio is at most 0.25.

For DKFS, the enrichment ratio was at most 0.25. On to KISA, for which the enrichment ratio was at most 0.25.

QICG: the enrichment ratio is at most 0.25. Turning to AWYP, the enrichment ratio is at most 0.25. For the variant VKKC, the enrichment ratio was at most 0.25.

Regarding TEHV, the enrichment ratio was 10.3. For the variant HCWD, the enrichment ratio is at most 0.25. Take ATPI: the enrichment ratio was found to be 8.1. SLWR: the enrichment ratio was at most 0.25.

Regarding ATIK, the enrichment ratio stood at 10.2. Next, VWVQ: at most 0.25; WQKY: at most 0.25; HWPN: at most 0.25. Consider HKLM, for which the enrichment ratio is at most 0.25.

For RNSK, the enrichment ratio was at most 0.25. Regarding LIPC, the enrichment ratio is at most 0.25. As for RLCE, the enrichment ratio is at most 0.25.

Consider FQEN, for which the enrichment ratio is at most 0.25. With TTQI, the enrichment ratio came out at 5.82. In the case of NTGK, the enrichment ratio was at most 0.25. As to MSAK, the enrichment ratio was at most 0.25. On to YMFK, for which the enrichment ratio was at most 0.25.

For LREK, the enrichment ratio was at most 0.25.

On to ITLT, for which the enrichment ratio was at most 0.25. For RWLL, the enrichment ratio is at most 0.25. NSFQ: the enrichment ratio is at most 0.25. RFPF: the enrichment ratio was at most 0.25. On to HVIA, for which the enrichment ratio was at most 0.25.

With DKKS, the enrichment ratio is at most 0.25. For QSWP, the enrichment ratio was at most 0.25. As for ASYC, the enrichment ratio is at most 0.25. For the variant SARR, the enrichment ratio is at most 0.25. On to TMTH, for which the enrichment ratio stood at 9.92. Next, RWPS: at most 0.25; HTGG: at most 0.25; AAVY: at most 0.25. Next, NMQD: at most 0.25; AEMS: 31; WDNN: at most 0.25. Consider FTYN, for which the enrichment ratio is at most 0.25. As for ERQN, the enrichment ratio was at most 0.25. In the case of PKEH, the enrichment ratio is at most 0.25. Next, PGQD: at most 0.25.

For the variant ADTW, the enrichment ratio is at most 0.25. As for HDTR, the figure is at most 0.25. Consider SMCH, for which the enrichment ratio is 5.44. In the case of TAHV, the enrichment ratio amounted to 10.4. Next, MVPP: at most 0.25; AKIF: 4.26; WFWY: at most 0.25. In the case of EDVH, the enrichment ratio was at most 0.25. For the variant NFPL, the enrichment ratio was at most 0.25.

As for YMPI, the enrichment ratio was at most 0.25. For LWYH, the enrichment ratio was at most 0.25. Turning to YRPP, the enrichment ratio is at most 0.25. As to PFWD, the enrichment ratio was 3.08. On to PWGF, for which the enrichment ratio is at most 0.25.

Turning to TFFH, the enrichment ratio is at most 0.25. Consider PQQG, for which the enrichment ratio was at most 0.25. For the variant RDEA, the enrichment ratio is at most 0.25. Consider NKTI, for which the enrichment ratio was at most 0.25.

Regarding NNHW, the enrichment ratio was at most 0.25. For the variant LTYE, the enrichment ratio is at most 0.25. As to EPPI, the enrichment ratio is at most 0.25. DGGV: the enrichment ratio is at most 0.25. Next, MVFL: 2.81. As for GLPG, the figure is at most 0.25; as for LMSL, at most 0.25; as for CFSM, 18.5.

As to LVEI, the enrichment ratio was at most 0.25. With WCCS, the enrichment ratio was at most 0.25. YPLD: the enrichment ratio was at most 0.25. As to HYGF, the enrichment ratio was at most 0.25. On to PVCF, for which the enrichment ratio is at most 0.25. In the case of TRKA, the enrichment ratio was at most 0.25. Take SIKP: the enrichment ratio is at most 0.25. As for ILIP, the figure is 0.762; as for YMID, at most 0.25. On to HPTN, for which the enrichment ratio was at most 0.25. Regarding CFLL, the enrichment ratio is at most 0.25.

Turning to DQGK, the enrichment ratio is at most 0.25.

Regarding EHYC, the enrichment ratio was at most 0.25. Turning to AVEN, the enrichment ratio is at most 0.25.

For the variant THHV, the enrichment ratio is at most 0.25. Next, WVPW: at most 0.25. Next, MKFR: at most 0.25. For LDYT, the enrichment ratio was at most 0.25. Turning to AGNP, the enrichment ratio is at most 0.25.

As to APYA, the enrichment ratio was at most 0.25. For the variant RMHT, the enrichment ratio is at most 0.25. As to YYWD, the enrichment ratio was at most 0.25. On to TPWP, for which the enrichment ratio was at most 0.25. Take ANRS: the enrichment ratio is at most 0.25.

For the variant PLCL, the enrichment ratio is at most 0.25. PTNK: the enrichment ratio is at most 0.25. Regarding VNYV, the enrichment ratio is at most 0.25. As to FFRD, the enrichment ratio was at most 0.25. Take NPMV: the enrichment ratio is at most 0.25. Consider IDWK, for which the enrichment ratio was at most 0.25. Regarding PMFQ, the enrichment ratio was at most 0.25.

VVGC: the enrichment ratio is at most 0.25. Next, CICF: 0.285; FEIF: at most 0.25; SMLY: 4. For the variant WGHW, the enrichment ratio is at most 0.25. In the case of TAMW, the enrichment ratio was at most 0.25. In the case of HYYR, the enrichment ratio was at most 0.25.
